According to ChEMBL document CHEMBL4888484, “Replenishing the malaria drug discovery pipeline: Screening and hit evaluation of the MMV Hit Generation Library 1 (HGL1) against asexual blood stage Plasmodium falciparum ,using a nano luciferase reporter read-out” (2022):
Screen size: about 150,000 compounds; about 540 (0.36%) showed an effect of 50% or more. This is one part of the list.

Tested on: Plasmodium falciparum
Test: Primary screen in NF54 nanoGlo assay, in single point, at 2uM, 72h; a lower Z score goes with more inhibition
Format: functional, Erythrocyte
Settings: timepoint 72 hour

SMILES | % Inhibition | Z score
O=C(CCC1CCCC1)N1CCC[C@H]1C1CCNCC1 | -10% | 1.61
CC1CCC(NC(=O)CN(C)CC(N)=O)CC1 (stereo unspecified) | -4% | 0.7
CCn1cc(CC(=O)NCC(C)C)c2cccnc21 | -19% | 2.2
O=C(CCc1ccc(=O)[nH]n1)N[C@H]1COCC[C@@H]1Oc1ccccn1 | -8% | 0.99
O=C(NC1(CO)CCCC1)[C@H]1CC(=O)N(CCOc2ccccc2Cl)C1 | -6% | 0.62
CC1CN(C(=O)NC(c2c(F)cccc2F)C(F)(F)F)CCC1=O (stereo unspecified) | -6% | 0.69
CCCc1cc2c(s1)N[C@H](c1ccc(C)cc1)NC2=O | 6% | -0.66
CN(C(=O)Nc1cccc2cccnc12)C1CC1 | -12% | 2.17
CCOc1cccc(-n2cc(-c3ccccc3)nc2NC(=O)CN(C(=O)c2ccc(Cl)cc2Cl)C2CC2)c1 | -6% | 0.57
CN(Cc1ccccc1F)C(=O)C1=CCC1 | -15% | 1.8
O=C(N[C@H]1CCCn2ncnc21)c1cncc(F)c1 | -12% | 1.8
CCc1nn(C)c(NC(=O)NCc2cnn3cccnc23)c1C | -2% | 0.29
CC(C)CNC(=O)CS(=O)(=O)Cc1ccccc1 | -6% | 1.18
COc1ccc(COCC(=O)NCc2cnn3c2CCCC3)cc1 | 1% | -0.13
O=C(COc1ccccc1)N[C@H]1CCCCNC1=O | -18% | 1.6
CC1CC(NC(=O)c2ccc[nH]2)C(=O)N1c1ccccc1 (stereo unspecified) | -11% | 2.19
Cc1cccc(NC(=O)CN2CCN(/C(=N\c3cccc(C(=O)O)c3)NC[C@H]3CCCO3)CC2)c1 | -24% | 2.23
CC[C@H](NC(=O)c1c(Cl)cnn1C)c1nc(C)c(C)s1 | -9% | 1.23
c1cc2c(c(-c3ccc(N4CCCC4)nn3)c1)OCC2 | -16% | 2.35
Cc1cc(C)n([C@H]2[C@@H]3OC[C@@H](O3)[C@@H](NCc3cnn(C)c3)[C@@H]2O)n1 | -6% | 0.85
O=S(=O)(N1CCCC1)N1CCC(F)(F)CC1 | -17% | 2.23
Cc1cc(C)n(C(=O)CCCc2ccccc2)n1 | -2% | 0.23

SMILES | % Inhibition | Z score
O=C1CCCN1CC(=O)N1CC2(CCC2)[C@@H]1C1CC1 | -1% | 0.21
Cc1nonc1CN(C)Cc1ccnc2ccccc12 | 0% | 0.07
CCN(Cc1nccn1C)C(=O)N[C@@H](C)c1nc(-c2cccc(C)c2)no1 | -1% | 0.13
CCc1cccc(NC(=O)Cn2nc3c(N4CCC[C@H](C)C4)nccn3c2=O)c1 | -1% | 0.15
Cc1cc(C(=O)Nc2nn(Cc3ccccc3F)cc2Br)c2cnn(C)c2n1 | -2% | 0.34
Cc1nn(Cc2ccccc2)c(C)c1S(=O)(=O)N1CCC(N2CCN(c3ncc(C(F)(F)F)cc3Cl)CC2)CC1 | -10% | 1.08
O=C(C1CCC1)N1CCN(Cc2cccs2)[C@@H]2CS(=O)(=O)C[C@@H]21 | 5% | -0.67
COc1ccc(C(=O)NC[C@@]2(COc3cnccn3)C[C@@H](O)[C@@H](O)C2)cc1 | -5% | 0.74
CN1CC(=O)N(C[C@H](O)COCc2ccc3c(c2)OCO3)C1=O | -2% | 0.18
CS(=O)(=O)C[C@H]1CCCN(C(=O)c2cccc3c2CCCC3)C1 | -17% | 2.25
Cc1cnn(C)c1S(=O)(=O)N1CCCCO1 | 5% | -0.46
COc1ccccc1C(=O)Nc1ccc(OC(=O)c2cnc3onc(C)c3c2)cc1 | -11% | 1.62
CC(C)(CNC(=O)c1coc(COc2ccc3c(c2)OCO3)n1)N1CCCC1 | -15% | 2.32
O=C(NCCc1ccccn1)c1ccc2c3c(cccc13)CC2 | -13% | 1.91
COCc1cc(N2CCN(c3nc(C)cc(C(F)(F)F)n3)CC2)ncn1 | -10% | 1.37
Cc1cc(C)nc(-c2ccc(C(=O)NCCF)cc2)n1 | -4% | 0.48
CO[C@@H](CNC(=O)NC(C)C)c1cccc(Cl)c1 | -7% | 0.95
CNC[C@H]1CCCN1Cc1ccc(OC)c(OC(F)F)c1 | -10% | 1.03
c1ccc(-c2ccccc2OC2CCNCC2)cc1 | -4% | 0.45
O=C(Nc1cnn(CC(=O)N2CCNC(=O)[C@@H]2Cc2ccccc2)c1)c1ccc2c(c1)OCO2 | 5% | -1
CN1CCN(CC[C@H]2CCCCN2C(=O)c2cccnc2N(C)C)CC1 | -4% | 0.93
